Laboratory results published in paper PMC9911399, “Two distinct binding modes provide the RNA-binding protein RbFox with extraordinary sequence specificity”.
Substitutions are numbered along the chain they refer to; changes in the protein carry UniProt numbers. Some of the results follow.

T1: RBFOX1 RRM (Homo sapiens, UniProt Q9NWB1 109-208)
T1 sequence: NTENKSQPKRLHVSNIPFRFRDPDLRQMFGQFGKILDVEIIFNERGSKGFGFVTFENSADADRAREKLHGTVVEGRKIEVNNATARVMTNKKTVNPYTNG

B1: GAAAAGA (DNA:RNA)
RNA: GGGAGACCGGAAUUCAGAUUGUCCGAAAAGAUUAAAUCCCGUCGUAGCCACCA
DNA 1: CAATCTGAATTCCGGTCTCCC
DNA 2: TGGTGGCTACGACGGGATT
B2: CUCUUGU (DNA:RNA)
RNA: B1 RNA with G25C, A26U, A27C, A28U, A29U, A31U
DNA 1: CAATCTGAATTCCGGTCTCCC
DNA 2: TGGTGGCTACGACGGGATT
B3: AAGACCA (DNA:RNA)
RNA: B1 RNA with G25A, A27G, A29C, G30C
DNA 1: CAATCTGAATTCCGGTCTCCC
DNA 2: TGGTGGCTACGACGGGATT
B4: CUCGCUA (DNA:RNA)
RNA: B1 RNA with G25C, A26U, A27C, A28G, A29C, G30U
DNA 1: CAATCTGAATTCCGGTCTCCC
DNA 2: TGGTGGCTACGACGGGATT
B5: CGUUAAC (DNA:RNA)
RNA: B1 RNA with G25C, A26G, A27U, A28U, G30A, A31C
DNA 1: CAATCTGAATTCCGGTCTCCC
DNA 2: TGGTGGCTACGACGGGATT
B6: AGGAGAG (DNA:RNA)
RNA: B1 RNA with G25A, A26G, A27G, A29G, G30A, A31G
DNA 1: CAATCTGAATTCCGGTCTCCC
DNA 2: TGGTGGCTACGACGGGATT
B7: UUGUUGC (DNA:RNA)
RNA: B1 RNA with G25U, A26U, A27G, A28U, A29U, A31C
DNA 1: CAATCTGAATTCCGGTCTCCC
DNA 2: TGGTGGCTACGACGGGATT
B8: UGGCGCA (DNA:RNA)
RNA: B1 RNA with G25U, A26G, A27G, A28C, A29G, G30C
DNA 1: CAATCTGAATTCCGGTCTCCC
DNA 2: TGGTGGCTACGACGGGATT
B9: GGCGCCU (DNA:RNA)
RNA: B1 RNA with A26G, A27C, A28G, A29C, G30C, A31U
DNA 1: CAATCTGAATTCCGGTCTCCC
DNA 2: TGGTGGCTACGACGGGATT
B10: UGUGACA (DNA:RNA)
RNA: B1 RNA with G25U, A26G, A27U, A28G, G30C
DNA 1: CAATCTGAATTCCGGTCTCCC
DNA 2: TGGTGGCTACGACGGGATT
B11: AUACUUC (DNA:RNA)
RNA: B1 RNA with G25A, A26U, A28C, A29U, G30U, A31C
DNA 1: CAATCTGAATTCCGGTCTCCC
DNA 2: TGGTGGCTACGACGGGATT
B12: CAGUCGA (DNA:RNA)
RNA: B1 RNA with G25C, A27G, A28U, A29C
DNA 1: CAATCTGAATTCCGGTCTCCC
DNA 2: TGGTGGCTACGACGGGATT
B13: AAAGGAU (DNA:RNA)
RNA: B1 RNA with G25A, A28G, A29G, G30A, A31U
DNA 1: CAATCTGAATTCCGGTCTCCC
DNA 2: TGGTGGCTACGACGGGATT
B14: AGAUAGU (DNA:RNA)
RNA: B1 RNA with G25A, A26G, A28U, A31U
DNA 1: CAATCTGAATTCCGGTCTCCC
DNA 2: TGGTGGCTACGACGGGATT
B15: ACAACAU (DNA:RNA)
RNA: B1 RNA with G25A, A26C, A29C, G30A, A31U
DNA 1: CAATCTGAATTCCGGTCTCCC
DNA 2: TGGTGGCTACGACGGGATT
B16: CAUGCGG (DNA:RNA)
RNA: B1 RNA with G25C, A27U, A28G, A29C, A31G
DNA 1: CAATCTGAATTCCGGTCTCCC
DNA 2: TGGTGGCTACGACGGGATT
B17: CACGGCG (DNA:RNA)
RNA: B1 RNA with G25C, A27C, A28G, A29G, G30C, A31G
DNA 1: CAATCTGAATTCCGGTCTCCC
DNA 2: TGGTGGCTACGACGGGATT
B18: CCGCCCU (DNA:RNA)
RNA: GGGAGACCGGAAUUCAGAUUGUCCCCGCCCUUUAAAUCCCGUCGUAGCCACCA
DNA 1: CAATCTGAATTCCGGTCTCCC
DNA 2: TGGTGGCTACGACGGGATT
B19: UCUAACU (DNA:RNA)
RNA: B18 RNA with C25U, G27U, C28A, C29A
DNA 1: CAATCTGAATTCCGGTCTCCC
DNA 2: TGGTGGCTACGACGGGATT
B20: UGGUUUU (DNA:RNA)
RNA: B18 RNA with C25U, C26G, C28U, C29U, C30U
DNA 1: CAATCTGAATTCCGGTCTCCC
DNA 2: TGGTGGCTACGACGGGATT
B21: GUGCUCU (DNA:RNA)
RNA: B18 RNA with C25G, C26U, C29U
DNA 1: CAATCTGAATTCCGGTCTCCC
DNA 2: TGGTGGCTACGACGGGATT
B22: UGAUACU (DNA:RNA)
RNA: B18 RNA with C25U, C26G, G27A, C28U, C29A
DNA 1: CAATCTGAATTCCGGTCTCCC
DNA 2: TGGTGGCTACGACGGGATT
B23: UAUGUAG (DNA:RNA)
RNA: B1 RNA with G25U, A27U, A28G, A29U, G30A, A31G
DNA 1: CAATCTGAATTCCGGTCTCCC
DNA 2: TGGTGGCTACGACGGGATT
B24: GCCGAAA (DNA:RNA)
RNA: B1 RNA with A26C, A27C, A28G, G30A
DNA 1: CAATCTGAATTCCGGTCTCCC
DNA 2: TGGTGGCTACGACGGGATT
B25: ACUAUAC (DNA:RNA)
RNA: B18 RNA with C25A, G27U, C28A, C29U, C30A, U31C
DNA 1: CAATCTGAATTCCGGTCTCCC
DNA 2: TGGTGGCTACGACGGGATT
B26: AUUGGCA (DNA:RNA)
RNA: B18 RNA with C25A, C26U, G27U, C28G, C29G, U31A
DNA 1: CAATCTGAATTCCGGTCTCCC
DNA 2: TGGTGGCTACGACGGGATT
B27: UCGACGC (DNA:RNA)
RNA: B18 RNA with C25U, C28A, C30G, U31C
DNA 1: CAATCTGAATTCCGGTCTCCC
DNA 2: TGGTGGCTACGACGGGATT
B28: AAAGUCA (DNA:RNA)
RNA: B1 RNA with G25A, A28G, A29U, G30C
DNA 1: CAATCTGAATTCCGGTCTCCC
DNA 2: TGGTGGCTACGACGGGATT
B29: UCGUGAA (DNA:RNA)
RNA: B18 RNA with C25U, C28U, C29G, C30A, U31A
DNA 1: CAATCTGAATTCCGGTCTCCC
DNA 2: TGGTGGCTACGACGGGATT
B30: GCGCGGU (DNA:RNA)
RNA: B18 RNA with C25G, C29G, C30G
DNA 1: CAATCTGAATTCCGGTCTCCC
DNA 2: TGGTGGCTACGACGGGATT
B31: UUGCGAC (DNA:RNA)
RNA: B18 RNA with C25U, C26U, C29G, C30A, U31C
DNA 1: CAATCTGAATTCCGGTCTCCC
DNA 2: TGGTGGCTACGACGGGATT

The binders below were run against T1, RBFOX1 RRM (assay: EMSA; HiTS-Eq, 1 nM pool, 10 min; buffer printed only for the single-RNA assays: 10 mM Tris pH 7.5, 150 mM NaCl, 3.4 mM EDTA, 0.001% NP-40, 30 C). Details: tags: His6 N-terminal (pET28a); label: 5' 32P.
Summary of the method: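 Purified RbFox RRM (wild type or mutant) was equilibrated for 10 min in 50 µL with 1 nM of a 5′-radiolabelled pool of RNA with 7 randomized nucleotides, its flanks annealed to DNA oligonucleotides, across increasing protein concentrations. Free RNA was separated by 8% native PAGE, excised, reverse-transcribed, PCR-barcoded and sequenced on an Illumina HiSeq 2500. Relative association constants came from read-count changes of each variant against the control reaction, normalised to the cognate motif.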
B1 was tested, and the binding signal was 0.00682 KA relative to UGCAUGU.
For B2, the binding signal was 0.012 KA relative to UGCAUGU.
In the case of B3, the binding signal is reported as 0.000241 KA relative to UGCAUGU.
In the case of B4, the binding signal is reported as 0.00606 KA relative to UGCAUGU.
With B5 the binding signal was 0.00654 KA relative to UGCAUGU.
B6 was tested, and the binding signal was 0.0161 KA relative to UGCAUGU.
For B7, the binding signal was 0.0249 KA relative to UGCAUGU.
In the case of B8, the binding signal is reported as 0.0218 KA relative to UGCAUGU.
With B9 the binding signal was 0.00816 KA relative to UGCAUGU.
For B10, the binding signal was 0.00766 KA relative to UGCAUGU.
With B11 the binding signal was 0.00231 KA relative to UGCAUGU.
In the case of B12, the binding signal is reported as 0.007 KA relative to UGCAUGU.
B13 was tested, and the binding signal was 0.00514 KA relative to UGCAUGU.
B14 was tested, and the binding signal was 0.0135 KA relative to UGCAUGU.
With B15 the binding signal was 0.000895 KA relative to UGCAUGU.
With B16 the binding signal was 0.00709 KA relative to UGCAUGU.
For B17, the binding signal was 0.00873 KA relative to UGCAUGU.
For B18, the binding signal was 0.00248 KA relative to UGCAUGU.
In the case of B19, the binding signal is reported as 0.00261 KA relative to UGCAUGU.
In the case of B20, the binding signal is reported as 0.0278 KA relative to UGCAUGU.
B21 was tested, and the binding signal was 0.0226 KA relative to UGCAUGU.
In the case of B22, the binding signal is reported as 0.0132 KA relative to UGCAUGU.
For B23, the binding signal was 0.018 KA relative to UGCAUGU.
For B24, the binding signal was 0.0107 KA relative to UGCAUGU.
B25 was tested, and the binding signal was 0.00114 KA relative to UGCAUGU.
With B26 the binding signal was 0.0143 KA relative to UGCAUGU.
For B27, the binding signal was 0.00828 KA relative to UGCAUGU.
In the case of B28, the binding signal is reported as 0.00111 KA relative to UGCAUGU.
In the case of B29, the binding signal is reported as 0.0077 KA relative to UGCAUGU.
In the case of B30, the binding signal is reported as 0.0228 KA relative to UGCAUGU.
For B31, the binding signal was 0.00598 KA relative to UGCAUGU.
